Molecular target: T1, BMP7 (human), P18075
T1 chain: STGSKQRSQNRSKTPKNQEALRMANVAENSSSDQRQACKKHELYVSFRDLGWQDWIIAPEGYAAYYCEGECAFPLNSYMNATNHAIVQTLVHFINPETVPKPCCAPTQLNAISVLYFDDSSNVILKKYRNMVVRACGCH
Assay: Biacore SPR, BMPRII-Fc captured by anti-Fc antibody, ligand injected; transient interaction; same Biacore run; KD given without ka and kd because the interaction was transient
Conditions: remark: other sources report otherwise

B1: homodimeric BMPRII-Fc fusion protein (extracellular domain of human BMPRII fused to a human immunoglobulin G1 Fc domain) (Fc fusion)
chain: SQNQERLCAFKDPYQQDLGIGESRISHENGTILCSKGSTCYGLWEKSKGDINLVKQGCWSHIGDPQECHYEECVVTTTPPSIQNGTYRFCCCSTDLCNVNFTENFPPPDTTPLSPPHSFNRDETG[letters of human IgG1 Fc and a few adjoining residues not shown]
Question: For B1, which Kd is on record?
Answer: 38 nM

— patent US20210002342A1
